# Measured values published in PubChem BioAssay AID1671188 (National Center for Advancing Translational Sciences (NCATS), 2021).
# Among all 100,000 compounds or so, about 250 (0.25%) were called active. Inconclusive results, whose numbers are uncertain, are shown with a selection of clear calls. Calls follow the shape of the dose curve; as a rule, active = well fitted inhibition curve with a large enough effect; inconclusive = small, poorly fitted or top-dose-only effect; inactive = flat fitted curve, though single readings scatter. No potency is given beside an inconclusive call; the fits are too rough.
# Target: Alanine aminotransferase 2 (Homo sapiens) (UniProt Q8TD30)
# Experiment: Primary qHTS assay for inhibitors of Glutamate pyruvate transaminase 2 (GPT2); also: nearly all actives have a fitted effect of over 60% in size
# Conditions: Recombinant GPT2, coupled pyruvate oxidase/HRP Amplex Red fluorescence; activity change, negative = inhibition: at 57.7 µM (top of the series) unless noted; series mostly up to 57.7 µM
# Outline: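 Fluorescence read-out: pyruvate from GPT2 turnover coupled to pyruvate oxidase, HRP and Amplex Red (0.2mM ThPP, 0.2U/mL PO and HRP, 50uM Amplex final). Substrates 250uM a-KG, 2mM L-alanine; enzyme 10ng/uL; 30 min RT.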
# % is scaled to controls: 0 for no effect and ±100 for the full control effect; potency is read from the fitted curve at half-maximal effect; tags tell the direction and shape of the fitted curve.
# Sequence of UniProt Q8TD30 (Q8TD30 whole entry, looked up): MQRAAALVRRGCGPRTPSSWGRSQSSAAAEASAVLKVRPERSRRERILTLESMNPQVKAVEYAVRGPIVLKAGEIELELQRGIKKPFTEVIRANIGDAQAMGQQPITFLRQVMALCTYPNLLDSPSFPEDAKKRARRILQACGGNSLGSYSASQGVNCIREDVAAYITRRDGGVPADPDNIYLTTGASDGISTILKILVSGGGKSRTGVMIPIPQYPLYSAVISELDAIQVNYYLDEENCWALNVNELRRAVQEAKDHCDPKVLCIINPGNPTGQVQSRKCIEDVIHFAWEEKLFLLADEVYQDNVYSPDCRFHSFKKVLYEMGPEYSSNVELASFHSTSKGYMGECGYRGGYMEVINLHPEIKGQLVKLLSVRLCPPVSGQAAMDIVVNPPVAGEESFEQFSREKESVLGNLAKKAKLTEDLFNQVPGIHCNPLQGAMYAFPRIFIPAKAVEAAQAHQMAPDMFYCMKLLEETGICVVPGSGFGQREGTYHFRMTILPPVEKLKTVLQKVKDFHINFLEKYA
SMILES,Potency,"activity change, negative = inhibition"
COc1ccc(-n2c(=O)c(C(=O)NC3CC3)nc3cccnc32)cc1,inactive,
CN1CCCC2(CCN(C(=O)CCc3ccccc3O)C2)C1=O (configuration not stated),,inactive: 2.35% [at 11.5 µM]
O=C(Nc1ccccc1C(F)(F)F)N1CCCC1c1nncn1-c1ccccc1 (configuration not stated),"inconclusive [inhibitor, single point]",
O=[S+]([O-])(c1cccs1)N1CCC2(CC(c3cccc(C(F)(F)F)c3)=NO2)C1 (configuration not stated),inactive,
CN(Cc1ccco1)C(=O)c1ccc(-c2ccc(N3CCCCCC3)nc2)cc1,inactive,
CN1CCCN(C(=O)c2nc3sccn3c2CN2C[C@]3(C)C[C@H]2CC(C)(C)C3)CC1,"inconclusive [inhibitor, single point]",
COc1c(C)cnc(Cn2c(-c3ccccc3)nc(C)c(CCO)c2=O)c1C,inactive,
COc1cc2c(cc1OC)CN(CCc1ccc(NC(=O)c3cc(OC)c(OC)cc3NC(=O)c3cnc4ccccc4c3)cc1)CC2,"inconclusive [inhibitor, full curve]",
COCCN(Cc1ccccn1)Cc1cc(=O)c2cc(C)cc(C)c2[nH]1,"inconclusive [inhibitor, partial curve]",
O=C(NC1CC1)c1nc(-c2cc(Cl)cc(Cl)c2)c2ccccn12,inactive,
Cc1ccccc1N1CCCN(Cc2cccc(CCN)c2)CC1,"inconclusive [inhibitor, single point]",
O=S(=O)(Cc1ccccc1)N1CCC(Oc2ccc(-c3noc(C4CC4)n3)cc2)C1 (configuration not stated),inactive,
O=C(NC1CCN(c2cc(-c3ccc(F)cc3)[nH]n2)C1)c1ccncc1 (configuration not stated),"inconclusive [inhibitor, partial curve]",
COc1ccccc1-n1c(=O)c(C(=O)NCC2CC2)nc2cccnc21,"inconclusive [inhibitor, single point]",
Cc1ccc(NC2=N[C@H]3[C@@H](O)[C@H](O)C[C@H](C(=O)N(C)Cc4ccccc4)[C@H]3S2)cc1,"inconclusive [inhibitor, single point]",
COC[C@@H]1CN(S(=O)(=O)c2cn(C)cn2)C[C@H]1c1ccccn1,"inconclusive [inhibitor, full curve, poor fit]",
O=C(NCC1(O)CCCN(C(=O)Cc2cccc(O)c2)CC1)c1ccccc1 (configuration not stated),"inconclusive [inhibitor, single point]",
COc1ccccc1C(=O)N1CC(c2nnc(-c3ccncc3)o2)C2(CCOCC2)C1 (configuration not stated),"inconclusive [inhibitor, single point]",
CCc1noc(-c2ccn3c(CNC(=O)Cc4cccc(OC)c4)nnc3c2)n1,inactive,
Cn1cccc1CN1CCn2c(nnc2-c2cccnc2)C1,"inconclusive [inhibitor, single point]",
COCCCNC(=O)C(NC(=O)C1CC1)C1CCN(C(=O)c2ccc(C)cc2)CC1 (configuration not stated),"inconclusive [inhibitor, single point]",
Cc1cn2nc(C(=O)N3CCC(NC(=O)c4cccc(N(C)C)c4)CC3)cc2c(=O)[nH]1,inactive,
CN1CCc2[nH]nc(C(=O)N[C@H](c3ccccn3)C3CC(O)C3)c2C1 (some centres not stated),"inconclusive [inhibitor, single point]",

SMILES,Potency,"activity change, negative = inhibition"
COCCn1ccc2c(C3=CCOCC3)nc(-c3cccc(CO)c3)cc21,inactive,
COc1ccc(CNC(=O)C2CN(c3ccc(Cl)cc3)C(=O)N2)cc1 (configuration not stated),inactive,
CCC1(N2CCN(C(=O)c3ccc(F)c(Cl)c3)CC2)CCN(S(C)(=O)=O)C1 (configuration not stated),inactive,
COCCN1C(=O)CC[C@]2(C(=O)NCc3cccc(OC)c3OC)CCCC[C@@H]12,"inconclusive [inhibitor, single point]",
COc1ccccc1CNC(=O)[C@@H]1Cc2c[nH]c3cccc(c23)[C@H](CC(C)C)N1,inactive,
COC(=O)c1ccc(CN2C(=O)[C@@H]3C[C@@H](O)CN3C3(CN(Cc4cccc(OC(F)(F)F)c4)C3)C2=O)cc1,"inconclusive [inhibitor, partial curve, poor fit]",
CCN(Cc1ccc(C)o1)C(=O)c1ccc2nc(-c3ccc(F)cc3)cn2c1,"inconclusive [inhibitor, full curve, poor fit]",
O=C(Cn1nc2c(cc1=O)CCCC2)NCCn1ccc2ccc(Cl)cc21,inactive,
COc1ccc(OC2CCN(C(C)=O)CC2)c(C(=O)NCCc2ccccc2OC)c1,"inconclusive [inhibitor, single point]",
COc1cccc(-c2cc3c(=O)n(CCNC(=O)c4ccc(C(C)(C)C)cc4)ccn3n2)c1,inactive,
Cc1cccc(CNC(=O)C2(C)CCCCC(=O)N2)c1 (configuration not stated),inactive,
CN(C)C[C@@H]1CN(Cc2ccccc2)C[C@H]1NC(=O)c1cnco1,"inconclusive [inhibitor, single point]",
CC(=O)NCC(=O)N1Cc2ccccc2CC2(CCCCN2CC2CCCC2)C1 (configuration not stated),"inconclusive [inhibitor, single point]",
CN1C(=O)CCN(C(=O)CC(C)(C)C)CC(OCC(N)=O)c2ccccc21 (configuration not stated),"inconclusive [inhibitor, full curve, poor fit]",
Oc1ccccc1CN(CCN1CCCCC1)CC1CCCN(C2CCCC2)C1 (configuration not stated),"inconclusive [inhibitor, single point]",
CCOCC1(C)COc2ccc(C(=O)N(C)c3ccccc3)cc2N1 (configuration not stated),inactive,
Cc1ccc(C(=O)Nc2ccc3c(N4CCOCC4)ncnc3c2)cc1C,"inconclusive [inhibitor, partial curve, poor fit]",
O=C(NCCc1ccncc1)C1CN(C(=O)c2ccc(F)c(F)c2)CC12CCOCC2 (configuration not stated),"inconclusive [inhibitor, single point]",
COC(=O)N1CCCCC(NC(=O)CCCc2nc(-c3ccccc3C)no2)C1 (configuration not stated),"inconclusive [inhibitor, partial curve, poor fit]",
CN(C)c1cc2c(Nc3ccc4c(cnn4Cc4ccccc4)c3)ncnc2cn1,"inconclusive [inhibitor, partial curve]",
O=C(c1cc2n(n1)CC(c1ccc3c(c1)OCO3)OC2)N1CCCC1 (configuration not stated),inactive,
CCOc1ccc(NC(=O)Cn2ccn3nc4c(c3c2=O)CC(C)CC4)cc1 (configuration not stated),inactive,
NC(=O)CNC(=O)C1=C[C@@H](NC(=O)NC2CCCCC2)[C@@H](O)[C@H](O)C1,"inconclusive [inhibitor, single point]",

SMILES,Potency,"activity change, negative = inhibition"
C=CCn1cc(-c2c(-c3ccccc3)ncn2Cc2cncn2CCOC)cn1,"inconclusive [inhibitor, single point]",
O=C(CC(c1ccccc1)c1ccccc1Cl)NCc1cc2n(n1)CCNC2 (configuration not stated),"inconclusive [inhibitor, partial curve, poor fit]",
COCCOCC1(CNCc2cn(C)c3ccccc23)C[C@@H](O)[C@@H](O)C1 (some centres not stated),inactive,
CC(C)C[C@@H]1N[C@H](C(=O)N(C)CCC#N)Cc2c[nH]c3cccc1c23,inactive,
Cc1noc2c(-c3cccnc3)cc(-c3cccc(C(F)(F)F)c3)nc12,"inconclusive [inhibitor, single point]",
O=C(NCC1CCCCC1)c1ccc2oc(-c3ccccn3)nc2c1,inactive,
Cc1ccnn1CCC(=O)Nc1nn(C)c2cccc(N3CCOCC3)c12,"inconclusive [inhibitor, single point]",
O=C(NCC1CC1)c1cccc(OC2CN(C3CCOCC3)C2)c1,"inconclusive [inhibitor, single point]",
O=C(Nc1ccc(S(=O)(=O)Nc2nccs2)cc1)C(c1ccccc1)c1ccccc1,"inconclusive [inhibitor, partial curve, poor fit]",
COc1ccc(CC(=O)NC2CCCc3c2[nH]c2ccccc32)cc1OC (configuration not stated),inactive,
Cc1ncoc1C(=O)N1CCCN(S(=O)(=O)c2ccccc2)CCC(=O)NCC1,"inconclusive [inhibitor, single point]",
CCS(=O)(=O)N1CCOC[C@H](Oc2ccc(C(F)(F)F)cn2)C1,inactive,
CN(C)c1cccc(-c2cnc3[nH]cc(CC(=O)NCc4cccnc4)c3c2)c1,inactive,
O=C1[C@@H]2C[C@@H](O)CN2C2(CN(Cc3ccc(OC(F)(F)F)cc3)C2)C(=O)N1Cc1ccccc1Cl,"inconclusive [inhibitor, single point]",
O=C(NC1CCN(c2cc(-c3cccs3)[nH]n2)C1)c1ccncc1 (configuration not stated),"inconclusive [inhibitor, partial curve]",
CC(=O)Oc1c(-c2ccc(NC(=O)c3ccccc3)cc2)c(-c2cccc(F)c2)nn1-c1ccccc1,"inconclusive [inhibitor, partial curve, poor fit]",
O=C(NC[C@@H]1CCCN1)c1ccc(S(=O)(=O)NCc2ncc[nH]2)cc1,inactive,
COc1cccc([S+](=O)([O-])N2CCC3(C2)N=C(c2ccncc2)C(=O)N3)c1 (configuration not stated),"inconclusive [inhibitor, single point]",
FC(F)(F)c1cc(Nc2cnc3ccc(N4CCOCC4)nn23)ccc1Cl,"inconclusive [inhibitor, single point]",
O=C(c1ccncc1)N1CCCC1c1nnc2n1CCNC2 (configuration not stated),"inconclusive [inhibitor, single point]",
CNC(=O)[C@@H](C1CC1)N1CCC[C@H]1C(=O)NCCOC,"inconclusive [inhibitor, single point]",
